Screen size: about 350,000 compounds; about 31,000 (8.9%) were called active. This list was built around the results that the source calls inconclusive (neither active nor inactive); the mix of calls is not that of the screen. The call rests on the fitted dose curve; in most records, active means well fitted inhibition curve with a large enough effect; inconclusive means small, poorly fitted or top-dose-only effect; inactive means no such curve, though single readings can be large or run the other way. Potencies beside an inconclusive call are fits to weak or partial responses and may not hold up.
These compounds were tested against Histone-lysine N-methyltransferase EHMT2 (Homo sapiens) (UniProt Q96KQ7) (assay: qHTS Assay for Inhibitors of Histone Lysine Methyltransferase G9a). Conditions: G9a H3K9 monomethylation, AlphaScreen, 2 h; activity, negative = inhibition: at 59 µM (top of the series) unless noted.
UniProt Q96KQ7, sequence (Q96KQ7 whole entry, looked up): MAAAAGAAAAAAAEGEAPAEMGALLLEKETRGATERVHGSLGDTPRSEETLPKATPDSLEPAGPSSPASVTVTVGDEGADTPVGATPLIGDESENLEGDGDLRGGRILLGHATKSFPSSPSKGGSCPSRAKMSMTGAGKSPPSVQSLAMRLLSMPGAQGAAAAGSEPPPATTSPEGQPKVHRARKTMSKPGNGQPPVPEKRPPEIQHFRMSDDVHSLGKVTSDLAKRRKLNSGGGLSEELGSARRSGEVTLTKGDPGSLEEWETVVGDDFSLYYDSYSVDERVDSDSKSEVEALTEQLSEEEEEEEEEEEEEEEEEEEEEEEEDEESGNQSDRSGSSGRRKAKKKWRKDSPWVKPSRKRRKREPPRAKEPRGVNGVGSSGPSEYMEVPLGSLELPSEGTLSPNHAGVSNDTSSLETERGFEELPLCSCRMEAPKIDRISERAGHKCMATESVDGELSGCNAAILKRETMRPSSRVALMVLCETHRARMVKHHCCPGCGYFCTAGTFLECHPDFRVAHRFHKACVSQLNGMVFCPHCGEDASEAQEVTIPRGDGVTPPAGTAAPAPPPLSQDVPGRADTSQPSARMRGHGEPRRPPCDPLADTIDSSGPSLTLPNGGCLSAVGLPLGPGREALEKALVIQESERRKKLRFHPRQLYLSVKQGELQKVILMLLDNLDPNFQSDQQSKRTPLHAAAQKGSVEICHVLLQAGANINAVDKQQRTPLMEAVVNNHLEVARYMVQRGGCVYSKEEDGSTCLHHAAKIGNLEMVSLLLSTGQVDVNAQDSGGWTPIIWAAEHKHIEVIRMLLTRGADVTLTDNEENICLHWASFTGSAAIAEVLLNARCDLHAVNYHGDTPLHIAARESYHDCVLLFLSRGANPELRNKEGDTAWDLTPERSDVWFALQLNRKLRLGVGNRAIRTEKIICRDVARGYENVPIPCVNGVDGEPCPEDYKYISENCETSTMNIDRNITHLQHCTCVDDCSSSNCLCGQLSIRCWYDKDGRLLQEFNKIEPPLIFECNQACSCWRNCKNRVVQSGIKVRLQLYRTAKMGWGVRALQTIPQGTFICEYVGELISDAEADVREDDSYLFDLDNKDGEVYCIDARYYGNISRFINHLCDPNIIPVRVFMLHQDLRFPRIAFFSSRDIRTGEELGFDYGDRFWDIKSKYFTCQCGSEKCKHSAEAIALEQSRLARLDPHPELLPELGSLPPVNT
Method in brief: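 AlphaScreen read-out: biotin-H3K9 peptide (500 nM) methylation by 20 nM enzyme with 20 uM SAM, 2 h at room temperature after 15 min compound preincubation; anti-monomethyl H3K9 antibody plus donor/acceptor beads, 10 min dark.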
For `CCOc1ccccc1NC(=O)c1nc(S(=O)(=O)Cc2ccccc2)ncc1Cl`, the Potency was active: 39.8 µM. With `Cc1cc(S(=O)(=O)N2CCCC2)ccc1OCC(=O)Nc1ccc(C(N)=O)cc1` the Potency was inconclusive: 10 µM [inhibitor, partial curve, poor fit]. With `CCOc1ccc(CNC(=O)c2c(C)nn(-c3ccc(F)cc3)c2-n2cccc2)cc1` the Potency was inconclusive: 6.31 µM [inhibitor, single point]. `Cc1ccc(-c2csc(N3CCC[C@@H]3C(=O)NCCn3c(C(F)(F)F)nc4ccccc43)n2)cc1` was tested, and the Potency was inconclusive: 56.2 µM [inhibitor, partial curve, poor fit]. With `CC(C)Cc1nnc(NC(=O)c2ccc3c(c2)NC(=O)C(C)S3)s1` (configuration not stated) the Potency was inconclusive: 79.4 µM [inhibitor, single point]. With `COc1cc(C(=S)N2CCCC2)cc(OC)c1OC` the Potency was active: 39.8 µM. In the case of `COCCCNC(=O)CC(NS(=O)(=O)c1ccc(Cl)cc1)c1ccc(OC)cc1` (configuration not stated), the Potency is reported as inconclusive: 3.16 µM [inhibitor, single point]. With `Cc1cccc2cc(C(c3nnnn3Cc3ccccc3)N3CCN(c4ccccc4)CC3)c(=O)[nH]c12` (configuration not stated) the Potency was inconclusive: 1.78 µM [inhibitor, partial curve, poor fit]. With `CCOC(=O)CC(=O)NC1(Cc2ccc(O)cc2)CCCCC1` the Potency was “inactive”. In the case of `Cc1ccc(-n2nc(C(=O)NCCN(C)C)c(=O)n(C)c2=O)cc1`, the Potency is reported as “inactive”. `O=C(CNc1ccccc1F)Nc1cccc2ccccc12` was tested, and the Potency was inconclusive: 89.1 µM [inhibitor, single point]. With `COc1ccccc1C1C(C(C)=O)=C(O)C(=O)N1c1ccc(O)cc1` (configuration not stated) the Potency was inconclusive: 89.1 µM [inhibitor, single point]. For `CC(=O)N1CCN(C(=S)c2cccc([N+](=O)[O-])c2)CC1`, the Potency was inconclusive: 25.1 µM [inhibitor, single point]. `Cc1ccc(CSCC(=O)N2CCN(c3cc(Cl)ccc3C)CC2)cc1` was tested, and the Potency was “inactive”. With `Cc1sc2ncnc(N3CCC(C(=O)Nc4ccc(S(N)(=O)=O)cc4)CC3)c2c1C` the Potency was inconclusive: 35.5 µM [inhibitor, single point]. For `Cc1oc(-c2ccc3c(c2)OCCO3)cc1C(=O)NC(Cc1ccccc1)C(=O)O` (configuration not stated), the Potency was active: 35.5 µM. `CCn1c(C)nc2cc(C(=O)NNC(=S)NC(=O)c3ccc(OC)cc3)ccc21` was tested, and the Potency was inconclusive: 31.6 µM [inhibitor, full curve, poor fit]. For `Cc1cccc(C)c1-n1c(C)cc(/C=N/NC(=O)CSc2ncccn2)c1C`, the Potency was “inactive”. For `COc1ccc(OC)c(-c2cc(C(=O)Nc3cc(C)n(Cc4ccc(Cl)cc4)n3)no2)c1`, the Potency was inconclusive: 31.6 µM [inhibitor, partial curve, poor fit]. In the case of `COCCN1C(=O)CC(NNC(=O)c2ccc(S(=O)(=O)N3CCCC3)cc2)C1=O` (configuration not stated), the Potency is reported as inconclusive: 79.4 µM [inhibitor, single point]. For `CCC(=O)Nc1ccc(S(=O)(=O)NCc2ccco2)cc1`, the Potency was active: 44.7 µM. In the case of `Cc1ccc(-c2nn(CC(=O)NC3CCCCC3)c3c2cnc2ccc(F)cc23)cc1C`, the Potency is reported as “inactive”. With `CC(C)C(CCNC(=O)CC(Cc1ccccc1)c1ccco1)c1ccco1` (configuration not stated) the activity, negative = inhibition was inactive: -26.2% [at 0.501 µM]. With `CCCCOc1ccc(-c2cc3c(=O)n(CC(=O)Nc4ccc(Cl)cc4Cl)ccn3n2)cc1` the Potency was inconclusive: 35.5 µM [inhibitor, partial curve]. For `CSc1nnc2c3cc(C)ccc3n(Cc3ccccc3)c2n1`, the Potency was inconclusive: 79.4 µM [inhibitor, single point]. For `Cc1[nH]c2ccccc2c1C(=O)C(=O)NC1CC(=O)N(c2cccc(F)c2)C1` (configuration not stated), the Potency was “inactive”. In the case of `CC(Sc1nnc2ccccn12)C(=O)Nc1ccc2c(c1)OCCO2` (configuration not stated), the Potency is reported as inconclusive: 56.2 µM [inhibitor, single point]. In the case of `Cc1cccc(N=c2c([N+](=O)[O-])nn(-c3ccc(Cl)cc3)n2O)c1`, the Potency is reported as active: 28.2 µM. With `COc1cccc(-c2cc(=O)c3ccccc3o2)c1N` the activity, negative = inhibition was inactive: 50.1% [at 12.7 µM]. In the case of `Cc1cccc(C(=O)Oc2ccc(/C=N/NC(=O)c3ccncc3)cc2)c1`, the Potency is reported as inconclusive: 50.1 µM [inhibitor, partial curve]. `COc1ccc(Cl)cc1NC(=O)CN1CCN(S(=O)(=O)c2ccc(F)cc2)CC1` was tested, and the Potency was “inactive”. For `Cc1cc(NC(=O)Cc2cccs2)no1`, the activity, negative = inhibition was inconclusive: -67.2% [inhibitor]. In the case of `CCn1c(SCC(N)=O)nnc1-c1ccc2[nH]c(C)c(C)c2c1`, the Potency is reported as “inactive”. `COc1ccc(C2C(C(N)=O)=C(C)Nc3nc(-c4ccccc4Cl)nn32)cc1` (configuration not stated) was tested, and the Potency was “inactive”. With `CC(=O)c1cccc(NC(=O)C(OC(=O)/C=C/c2ccc3c(c2)OCO3)c2ccccc2)c1` (configuration not stated) the Potency was inconclusive: 2.82 µM [inhibitor, partial curve, poor fit]. With `CNc1c(NS(=O)(=O)c2ccc(CC(C)C)cc2)c(=O)oc2ccccc12` the Potency was “inactive”. For `Cc1cccc(C)c1Nc1c(-c2ccc(Cl)s2)nc2ncccn12`, the Potency was inconclusive: 25.1 µM [inhibitor, partial curve, poor fit]. For `CCOc1ccc2c(c1)C(C)=CC(C)(C)N2C(=O)Nc1ccccc1`, the Potency was active: 50.1 µM. In the case of `COc1ccc2oc(C(=O)Nc3ccc(S(=O)(=O)N(C)C4CCN(C)CC4)cc3)c(C)c2c1`, the Potency is reported as “inactive”. In the case of `CC(C)C(=O)OC1=CN(Cc2ccccc2)S(=O)(=O)c2ccccc21`, the Potency is reported as “inactive”. With `COCC(C)N=C1NN=C(c2ccc(NC(C)=O)cc2)CS1` (configuration not stated) the Potency was active: 11.2 µM. With `Cc1nc2ccccc2c(=O)n1/N=C/c1ccccc1` the activity, negative = inhibition was inactive: 28.1% [at 0.501 µM]. For `Cc1cccc(N(C(=O)c2snc(C(N)=O)c2N)C(C(=O)NCc2ccccc2)c2ccncc2)c1` (configuration not stated), the Potency was active: 50.1 µM. In the case of `O=C(C1CCCO1)N1CCN(C(=S)Nc2cc(F)cc(F)c2)CC1` (configuration not stated), the Potency is reported as inconclusive: 3.16 µM [inhibitor, partial curve, poor fit]. For `O=C(CSC(=S)N1CCOCC1)c1cc2ccccc2oc1=O`, the Potency was active: 70.8 µM. In the case of `COc1ncc2nc(-c3cc(F)cc(F)c3)c(=O)n(CCc3ccccc3)c2n1`, the activity, negative = inhibition is reported as inactive: -5.5% [at 12.7 µM]. In the case of `CCn1cc(C(=O)OCC(=O)Nc2cc(C)cc(C)c2)c(=O)c2ccc(C)nc21`, the Potency is reported as inconclusive: 31.6 µM [inhibitor, partial curve, poor fit]. `O=C(NCc1ccncc1)c1cccc(S(=O)(=O)Nc2ccc(F)cc2)c1` was tested, and the Potency was inconclusive: 79.4 µM [inhibitor, single point]. In the case of `O=[N+]([O-])c1ccccc1Oc1ccc(S(=O)(=O)N2CCOCC2)cc1`, the activity, negative = inhibition is reported as inactive: -13.3% [at 12.7 µM]. For `O=c1c(-c2ccco2)[n+]([O-])c2ccccc2n1OCc1ccccc1`, the Potency was active: 6.31 µM. In the case of `COc1ccccc1C(C)NCC(=O)NCc1ccc(C)cc1` (configuration not stated), the Potency is reported as “inactive”. `CCCCOc1ccc(C)cc1CN(CCO)CCO` was tested, and the Potency was inconclusive: 89.1 µM [inhibitor, single point]. In the case of `O=C(NCC1CCCO1)C(c1cccs1)N(Cc1ccccc1Cl)C(=O)c1ccc(-c2ccccc2)[nH]1` (configuration not stated), the Potency is reported as inconclusive: 79.4 µM [inhibitor, partial curve, poor fit]. For `O=C(CSc1cn(CC(=O)N2CCCCCC2)c2ccccc12)Nc1ccccc1F`, the Potency was inconclusive: 35.5 µM [inhibitor, partial curve, poor fit]. In the case of `C[C@@H](O)[C@H]1C(=O)N2C(C(=O)O)=C(S[C@@H]3CN[C@H](CNS(N)(=O)=O)C3)[C@H](C)[C@H]12`, the Potency is reported as inconclusive: 2.51 µM [inhibitor, partial curve, poor fit]. With `O=C(CSc1nc2ccc([N+](=O)[O-])cc2[nH]1)NC1CCCC1` the Potency was “inactive”. With `Cc1ccc(NC(=O)C2CCCN2C(=O)OCc2ccccc2)cc1C` (configuration not stated) the Potency was inconclusive: 79.4 µM [inhibitor, single point]. For `CN(C)Cc1c(O)ccc2occ(C(O)c3ccccc3)c12` (configuration not stated), the Potency was inconclusive: 89.1 µM [inhibitor, partial curve, poor fit]. In the case of `Cc1c(C(=O)NCc2ccc(N(C)C)cc2)oc2c1-c1nn(Cc3cccc(Cl)c3)cc1CC2`, the Potency is reported as “inactive”. With `Cc1cc2c(cc1S(=O)(=O)N1CCC(C)CC1)OCC(=O)N2` the Potency was inconclusive: 4.47 µM [inhibitor, partial curve, poor fit]. With `CCN(C(=O)C1CCN(S(=O)(=O)c2ccc3c(c2)CCCN3C(=O)C2CCC2)CC1)c1cccc(C)c1` the Potency was “inactive”. For `COCCN1Cc2cccc(C(=O)Nc3ccc(C)cc3C)c2C1=O`, the Potency was “inactive”. For `Cc1cc(NC(=O)CSc2ccc3nnc(-c4ccc(F)cc4)n3n2)no1`, the Potency was active: 79.4 µM. With `O=[N+]([O-])c1ccccc1OCCOCCOc1cccc2cccnc12` the Potency was active: 2 µM. `Cc1c2n(c3ccccc13)CCN(C)C2` was tested, and the activity, negative = inhibition was inactive: -11.3% [at 2.33 µM]. In the case of `O=C(CNC(=S)N(CCCN1CCOCC1)Cc1cccs1)NC1CCCCCCC1`, the Potency is reported as “inactive”. With `COc1ccc(S(=O)(=O)c2cn(C)c3cc(N4CCCC4)c(F)cc3c2=O)cc1` the Potency was “inactive”. In the case of `O=S(=O)(c1ccc2ccccc2c1)n1nc(-c2ccco2)nc1NCc1cccc(Cl)c1`, the Potency is reported as “inactive”. With `Cc1cc(NC(=O)C(C)SCC(=O)N(Cc2ccccc2)c2ccccc2)no1` (configuration not stated) the Potency was “inactive”. `COc1ccc(-c2csc(N3C(=O)CNC3=S)n2)cc1` was tested, and the Potency was inconclusive: 39.8 µM [inhibitor, single point]. For `CC(C)(C)c1cc(-c2n[nH]c(=S)n2-c2ccccc2F)n[nH]1`, the Potency was inconclusive: 8.91 µM [inhibitor, partial curve, poor fit]. `COc1cccc(/C=N/NC(=O)C(=O)N/N=C/c2cccc(OC)c2O)c1O` was tested, and the Potency was “inactive”.
Further: nearly all actives have a fitted effect of over 75% in size.
On the % scale 0 is the no-effect control and ±100 the full control effect; potency means the concentration at half of the fitted maximal effect; tags describe the fitted curve by direction and shape.
